Reference: PubChem BioAssay AID686970 (National Center for Advancing Translational Sciences (NCATS), 2013)
In all, about 360,000 compounds went through this assay and about 6,000 (1.7%) were called active. The inconclusive results got no clear call from the source; some entries with a clear call stand among them for comparison. Calls come from the whole dose curve; as a rule, active = well fitted cell-killing curve with a large enough effect; inconclusive = small, poorly fitted or top-dose-only effect, or effect the other way; inactive = flat fitted curve, though single readings scatter. Potencies of inconclusive entries are left out as doubtful fits.

Experiment: qHTS for induction of synthetic lethality in tumor cells producing 2HG: qHTS for the HT-1080-NT fibrosarcoma cell line;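 note: NT is the 2HG producing partner of a matched IDH1 knockdown line; nearly all actives have a fitted effect of over 55% in size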;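 for activity, negative = less viability: 0% = DMSO-treated cells and -100% = media-only wells without cells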
Conditions: HT-1080-NT fibrosarcoma viability, CellTiter-Glo ATP luminescence, 48 h; activity, negative = less viability: at 46.1 µM (top of the series) unless noted
Summary of the method: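 Compounds were tested in concentration-response format on HT-1080-NT cells for 48 hours at 37 degrees C. Cell viability came from CellTiter-Glo luminescence; curves were classified by r2, response magnitude and activity.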
Potency is the fitted concentration of half-maximal effect; tags give direction and shape of the fitted curve.

Structure (SMILES)	Potency	activity, negative = less viability
COc1cccc(S(=O)(=O)Nc2ccc3c(c2)C(=O)N(C)C[C@H](OC)[C@H](C)CN(Cc2ccccc2F)[C@@H](C)CO3)c1	inconclusive [cytotoxic, single point]	–
Cc1c(Cl)c([N+](=O)[O-])nn1Cc1ccc(C(=O)N/N=C\c2cc(Cl)ccc2O)o1	inconclusive [cytotoxic, full curve]	–
COc1cc(C2(c3ccc(O)c(OC)c3)C(=O)N(C)c3ccc(Br)cc32)ccc1O	inconclusive [cytotoxic, single point]	–
COc1ccc(NC(=O)CC2C(=O)N(Cc3ccccc3)C(=S)N2CCN2CCOCC2)cc1 (stereo not given)	–	inactive: -13.4%
Cc1cc(C(=O)COc2ccc(-c3nnco3)cc2)c(C)n1Cc1ccccc1	inconclusive [cytotoxic, single point]	–
CC(C)CN(C)C(=O)CCc1nnc(Cc2ccc(-c3ccccc3)cc2)o1	–	inactive: -15.7%
CC1CCN(C(=O)CSc2nc(=O)n3ccccc3n2)CC1	–	inactive: 4.03%
O=C1C(=C(c2ccccc2)N2CCOCC2)Cc2ccccc21	active: 14.6 µM	–
COc1ccc(OC)c(NC(=O)c2sc3ncnc(N4CCN(c5ccccn5)CC4)c3c2C)c1	–	inconclusive: 31.2%
CS(=O)(=O)Nc1cccc(C2=NN(S(C)(=O)=O)C(c3ccc4c(c3)OCO4)C2)c1 (stereo not given)	inconclusive [cytotoxic, single point]	–
COc1ccccc1CC(=O)Nc1cc2oc3ccccc3c2cc1OC	inconclusive [cytotoxic, single point]	–
NC(=O)COc1ccc(NC(=O)CC23CC4CC(CC(C4)C2)C3)cc1	–	inactive: -14.9%
COc1ccc(-c2cnc3c(NC(C)=O)cc(-c4ccc(C(=O)N5CCOCC5)cc4)cn23)cc1OC	–	inconclusive: -32.4% [cytotoxic]
O=C(CSCc1ccc(Br)cc1)NCc1ccccn1	–	inactive: 12.4%
COc1ccc(-n2c(=O)/c(=C\c3cccs3)s/c2=C(/C#N)C(=O)NCCN2CCOCC2)cc1	–	inactive: -0.685%
CC1(C)NC(=O)N(CCCCOc2ccc(Cl)cc2C=O)C1=O	active: 23.1 µM	–
COc1ccc(C)cc1S(=O)(=O)N(CC(=O)Nc1cc([N+](=O)[O-])ccc1C)c1ccc(C)c(C)c1	–	inactive: -8.45%
CCN(CC)C(=O)Cn1cc(C(=O)C(=O)N2CCc3ccccc32)c2ccccc21	–	inactive: -13.7%
CC(C)c1ccc(NC(=O)C2Cc3c(-c4ccc5c(c4)OCO5)ccnc3O2)cc1 (stereo not given)	inconclusive [cytotoxic, single point]	–
CC(=O)C1=C(C)NC(SCC(=O)c2ccc(F)cc2)=C(C#N)C1c1ccco1 (stereo not given)	inconclusive [cytotoxic, single point]	–
